In patent US20110159513A1 (MERRIMACK PHARMACEUTICALS, published 2011):

Target: ErbB3 on tumour cells (NCI-ADRr, OVCAR8, OVCAR8-HER2) (UniProt P21860 20-1342, limits assumed)
Test: cell-based or functional assay

IC50 (printed as DR50data): inhibition of HRG-induced pErbB3 in OVCAR8 cells, ELISA, 5 nM HRG, 10 min lysis: 1.7e-09 M
B1: bispecific antibody H3×B1D2 (bispecific antibody)
chain: QVQLQESGGGLVKPGGSLRLSCAASGFTFSSYWMSWVRQAPGKGLEWVANINRDGSASYYVDSVKGRFTISRDDAKNSLYLQMNSLRAEDTAVYYCARDRGVGYFDLWGRGTLVTVSSASTGGGGSGGGGSGGGGSQSALTQPASVSGSPGQSITISCTGTSSDVGGYNFVSWYQQHPGKAPKLMIYDVSDRPSGVSDRFSGSKSGNTASLIISGLQADDEADYYCSSYGSSSTHVIFGGGTKVTVLGAAS[about 600 residues skipped]AAALQVQLVQSGAEVKKPGESLKISCKGSGYSFTSYWIAWVRQMPGKGLEYMGLIYPGDSDTKYSPSFQGQVTISVDKSVSTAYLQWSSLKPSDSAVYFCARHDVGYCTDRTCAKWPEWLGVWGQGTLVTVSSGGGGSSGGGSGGGGSQSVLTQPPSVSAAPGQKVTISCSGSSSNIGNNYVSWYQQLPGTAPKLLIYDHTNRPAGVPDRFSGSKSGTSASLAISGFRSEDEADYYCASWDYTLSGWVFGGGTKLTVLG
